Binding data for five molecules are collected here from article PMC10229581.

By UniProt entry, the sequences of proteins in these tests, tags left out. Residues count along the entry.
UniProt P20029, residues 20-655: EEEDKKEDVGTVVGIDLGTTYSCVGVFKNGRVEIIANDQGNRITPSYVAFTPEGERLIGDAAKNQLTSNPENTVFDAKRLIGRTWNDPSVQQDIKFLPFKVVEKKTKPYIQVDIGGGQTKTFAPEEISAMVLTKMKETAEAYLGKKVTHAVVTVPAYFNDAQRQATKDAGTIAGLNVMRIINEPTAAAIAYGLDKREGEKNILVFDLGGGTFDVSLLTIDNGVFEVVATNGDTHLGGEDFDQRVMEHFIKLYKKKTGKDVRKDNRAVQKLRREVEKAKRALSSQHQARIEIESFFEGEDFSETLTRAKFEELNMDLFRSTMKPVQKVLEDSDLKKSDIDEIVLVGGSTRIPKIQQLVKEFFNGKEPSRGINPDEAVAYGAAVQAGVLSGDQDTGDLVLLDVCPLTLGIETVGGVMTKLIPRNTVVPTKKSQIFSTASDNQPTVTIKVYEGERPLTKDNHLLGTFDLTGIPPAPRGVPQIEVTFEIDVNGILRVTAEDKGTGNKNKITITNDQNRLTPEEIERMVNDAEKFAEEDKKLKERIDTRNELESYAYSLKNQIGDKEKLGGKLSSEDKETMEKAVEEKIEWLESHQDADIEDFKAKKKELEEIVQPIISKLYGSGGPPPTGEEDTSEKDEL
UniProt Q9Z2G6, residues 22-790: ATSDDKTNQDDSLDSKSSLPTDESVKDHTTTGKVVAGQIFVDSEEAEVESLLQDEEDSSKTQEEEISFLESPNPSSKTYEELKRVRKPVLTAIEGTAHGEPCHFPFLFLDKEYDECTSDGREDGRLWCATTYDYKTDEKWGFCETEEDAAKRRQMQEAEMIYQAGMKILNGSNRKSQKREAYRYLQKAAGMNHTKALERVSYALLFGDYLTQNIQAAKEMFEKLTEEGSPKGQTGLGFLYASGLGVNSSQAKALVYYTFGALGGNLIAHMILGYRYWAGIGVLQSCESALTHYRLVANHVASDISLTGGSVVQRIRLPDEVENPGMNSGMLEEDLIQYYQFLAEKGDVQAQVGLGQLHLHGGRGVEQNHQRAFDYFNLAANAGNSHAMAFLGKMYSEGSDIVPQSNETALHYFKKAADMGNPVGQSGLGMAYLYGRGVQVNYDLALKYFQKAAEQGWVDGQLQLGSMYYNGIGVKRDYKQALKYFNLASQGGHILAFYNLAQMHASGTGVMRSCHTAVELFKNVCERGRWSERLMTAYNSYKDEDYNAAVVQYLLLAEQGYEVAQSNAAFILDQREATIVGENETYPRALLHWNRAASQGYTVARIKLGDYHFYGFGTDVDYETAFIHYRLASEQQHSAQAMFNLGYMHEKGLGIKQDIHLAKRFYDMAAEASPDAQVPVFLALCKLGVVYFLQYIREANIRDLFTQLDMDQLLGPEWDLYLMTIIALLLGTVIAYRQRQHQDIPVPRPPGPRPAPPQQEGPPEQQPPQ

No constants are given. Whether binding was seen depends on the method and setting. Binding seen in cells or lysates may run through a third protein. Some entries that bind do so weakly or less than the wild type.

Assay [1] deals with T1, lipoprotein lipase (mouse (endogenous in WAT, BAT and differentiated adipocytes)) (UniProt P11152).
T1 sequence: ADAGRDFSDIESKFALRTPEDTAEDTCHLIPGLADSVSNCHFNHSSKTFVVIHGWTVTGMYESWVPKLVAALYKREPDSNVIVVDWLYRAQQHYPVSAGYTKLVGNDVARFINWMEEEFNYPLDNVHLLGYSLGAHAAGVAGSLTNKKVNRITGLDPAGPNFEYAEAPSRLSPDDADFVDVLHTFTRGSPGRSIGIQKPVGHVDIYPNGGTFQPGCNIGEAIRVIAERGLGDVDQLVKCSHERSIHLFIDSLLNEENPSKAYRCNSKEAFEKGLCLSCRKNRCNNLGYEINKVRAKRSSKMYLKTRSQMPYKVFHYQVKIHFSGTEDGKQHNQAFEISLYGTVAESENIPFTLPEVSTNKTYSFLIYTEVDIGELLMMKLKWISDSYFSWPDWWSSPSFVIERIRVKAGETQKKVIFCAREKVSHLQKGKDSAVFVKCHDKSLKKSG
Briefly: co-IP; IP of endogenous LPL from gonadal WAT lysate of DKO (Sel1L^AdipCre;Atg7^AdipCre) mice, immunoblot; 1% Triton X-100, 150 mM NaCl, 25 mM Tris-HCl pH 7.5, 4 °C. (In general: A western blot detects proteins with antibodies after separation by electrophoresis.)

In assay [2] the target is T1, lipoprotein lipase (mouse (endogenous in WAT, BAT and differentiated adipocytes)). The assay is described as follows: co-IP; IP of endogenous LPL from gonadal WAT lysate of WT mice, immunoblot; 1% Triton X-100, 150 mM NaCl, 25 mM Tris-HCl pH 7.5, 4 °C.
The target is the same in assay [3]. Briefly: co-IP; IP of endogenous LPL from differentiated WT adipocytes, immunoblot for SEL1L.
Assay [4] has the same target. Briefly: co-IP; IP of endogenous LPL from differentiated Hrd1^–/– adipocytes, immunoblot for SEL1L.

HSPA5/BiP (from UniProt P20029 20-655): the binding result in assay [1] is given as “binds”; in assay [2] it was “no binding (condition: in WT WAT)”.
With SEL1L (from UniProt Q9Z2G6 22-790), the binding result in assay [3] is given as “no binding (condition: in WT adipocytes (HRD1 present))”; in assay [4], “binds”.

B1: Caveolin 1 (protein, UniProt P49817 1-178)
chain: MSGGKYVDSEGHLYTVPIREQGNIYKPNNKAMADEVTEKQVYDAHTKEIDLVNRDPKHLNDDVVKIDFEDVIAEPEGTHSFDGIWKASFTTFTVTKYWFYRLLSTIFGIPMALIWGIYFAILSFLHIWAVVPCIKSFLIEIQCISRVYSIYVHTFCDPLFEAIGKIFSNIRISTQKEI
Consider B1, for which, in assay [2], the binding entry is reported as “binds”.

B2: Malectin (protein, UniProt Q6ZQI3 31-291)
chain: PGLGVVGAAGAGLPESVIWAVNAGGEAHVDVHGIHFRKDPLEGRVGRASDYGMKLPILRSTPEDQILYQTERYNEETFGYEVPVKEEGDYVLVLKFAEVYFAQSQQKVFDVRLNGHVVVKDLDIFDRVGHSTAHDEIIPMSIRKGKLSVRGEVSTFTGKLYIEFVKGYYDNPKVCALYILAGTVDDVPKLQPHPGLEKKEEEEEEEEYDEGSNLKRQTNKNRVQSGPRTPNPYASDNSSLMFPILVAFGVFIPTLFCLCRL
Turning to B2, in assay [1], the binding entry is recorded as “binds”.

B3: procollagen-Lysine,2-oxoglutarate 5-dioxygenase 3 (enzyme, UniProt Q9R0E1 28-741)
chain: SDRPRGANAVNPDKLLVITVATAETEGYRRFLQSAEFFNYTVRTLGLGQEWRGGDVARTVGGGQKVRWLKKEMEKYADQKDMIIMFVDSYDVILASSPTELLKKFVQSGSHLLFSAESFCWPEWGLAEQYPEVGMGKRFLNSGGFIGFAPTIHQIVRQWNYKDDDDDQLFYTQLYLDPGLREKLKLSLDHKSRIFQNLNGALDEVILKFDQNRVRIRNVAYDTLPVVVHGNGPTKLQLNYLGNYVPNGWTPQGGCGFCNQTLRTLPGGQPPPRVLLAVFVEQPTPFLPRFLQRLLLLDYPPDRISLFLHNSEVYHEPHIADAWPQLQDHFSAVKLVGPEEALSAGEARDMAMDSCRQNPECEFYFSLDADAVLTNPETLRVLIEQNRKVIAPMLSRHGKLWSNFWGALSPNEYYARSEDYVELVQRKRVGVWNVPYISQAYVIRGETLRTELPQKEVFSSSDTDPDMAFCKSVRDKGIFLHLSNQHEFGRLLATSRYDTDHLHPDLWQIFDNPVDWREQYIHENYSRALDGEGLVEQPCPDVYWFPLLTEQMCDELVEEMEHYGQWSGGRHEDSRLAGGYENVPTVDIHMKQVGYEDQWLQLLRTYVGPMTEYLFPGYHTKTRAVMNFVVRYRPDEQPSLRPHHDSSTFTLNVALNHKGVDYEGGGCRFLRYDCRISSPRKGWALLHPGRLTHYHEGLPTTRGTRYIMVSFVDP
On to B3, for which the binding result in assay [1] is reported as “binds”; in assay [2], “no binding (condition: in WT WAT)”.
